According to PMC4058081, “p600 regulates spindle orientation in apical neural progenitors and contributes to neurogenesis in the developing neocortex” (Biology Open, 2014):
Positions count from the first letter of the chain named. These are yes or no findings as the source states them, for the method shown. For part of these data: In cells and extracts the contact can be indirect. Some results given as binding are weak or reduced against the parent protein; the word gives no strength. For part of these data: Where a sequence is shown, tags or fusion partners need not be part of it. Blank lines part the entries; values can stand above or below the molecule they belong to.

Chains of the proteins cited; added tags and fusions are not shown. A line that says so, or that is headed by a name, gives the form on record, which may keep a tag or linker. Residues count along the entry.
FLAG-tagged p600 fragment containing residues 3214–3899 (Q5T4S7, residues 3214-3899): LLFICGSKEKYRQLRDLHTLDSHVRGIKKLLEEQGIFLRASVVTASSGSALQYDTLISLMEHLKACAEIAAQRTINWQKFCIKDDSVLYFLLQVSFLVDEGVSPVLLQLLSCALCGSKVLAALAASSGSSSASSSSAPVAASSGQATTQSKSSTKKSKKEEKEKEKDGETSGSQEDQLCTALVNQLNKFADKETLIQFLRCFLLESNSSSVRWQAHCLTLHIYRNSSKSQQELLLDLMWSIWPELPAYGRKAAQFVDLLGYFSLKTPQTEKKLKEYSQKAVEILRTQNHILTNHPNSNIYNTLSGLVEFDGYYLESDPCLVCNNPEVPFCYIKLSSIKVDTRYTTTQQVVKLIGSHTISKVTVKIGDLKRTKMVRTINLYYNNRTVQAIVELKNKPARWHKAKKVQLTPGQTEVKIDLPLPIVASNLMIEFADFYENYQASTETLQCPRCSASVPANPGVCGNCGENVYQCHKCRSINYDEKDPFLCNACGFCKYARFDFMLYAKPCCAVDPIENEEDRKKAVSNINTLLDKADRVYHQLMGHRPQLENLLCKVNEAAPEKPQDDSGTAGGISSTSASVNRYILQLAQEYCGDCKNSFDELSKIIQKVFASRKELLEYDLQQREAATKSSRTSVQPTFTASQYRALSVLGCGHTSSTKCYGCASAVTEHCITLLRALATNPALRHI
FLAG-tagged p600 fragment containing residues 3910–4851 (Q5T4S7, residues 3910-4851): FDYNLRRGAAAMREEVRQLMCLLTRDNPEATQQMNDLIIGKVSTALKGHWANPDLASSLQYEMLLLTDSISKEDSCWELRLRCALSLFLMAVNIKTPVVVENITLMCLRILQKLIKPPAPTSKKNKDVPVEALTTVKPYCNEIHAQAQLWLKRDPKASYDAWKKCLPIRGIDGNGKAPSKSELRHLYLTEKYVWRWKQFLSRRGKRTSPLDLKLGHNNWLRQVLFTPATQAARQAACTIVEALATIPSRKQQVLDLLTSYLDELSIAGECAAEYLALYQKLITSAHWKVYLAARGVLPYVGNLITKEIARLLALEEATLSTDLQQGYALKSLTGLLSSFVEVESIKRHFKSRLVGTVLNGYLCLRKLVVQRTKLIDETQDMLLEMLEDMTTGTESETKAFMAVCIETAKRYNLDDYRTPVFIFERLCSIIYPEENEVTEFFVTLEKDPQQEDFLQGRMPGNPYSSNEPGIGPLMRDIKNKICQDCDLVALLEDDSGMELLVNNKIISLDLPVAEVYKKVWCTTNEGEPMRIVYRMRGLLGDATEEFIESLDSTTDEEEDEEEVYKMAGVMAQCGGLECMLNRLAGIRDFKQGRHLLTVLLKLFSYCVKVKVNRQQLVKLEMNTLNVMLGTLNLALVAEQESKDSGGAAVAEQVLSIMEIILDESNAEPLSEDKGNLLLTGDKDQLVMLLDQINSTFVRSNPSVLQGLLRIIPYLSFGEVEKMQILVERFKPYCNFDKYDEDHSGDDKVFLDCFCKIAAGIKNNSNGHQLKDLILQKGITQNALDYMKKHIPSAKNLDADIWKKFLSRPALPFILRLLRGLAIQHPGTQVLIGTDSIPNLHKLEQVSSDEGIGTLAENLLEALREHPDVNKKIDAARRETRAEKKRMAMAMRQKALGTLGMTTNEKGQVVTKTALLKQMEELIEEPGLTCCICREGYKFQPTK
recombinant p600^4480–5183 (Q5T4S7, residues 4480-5183): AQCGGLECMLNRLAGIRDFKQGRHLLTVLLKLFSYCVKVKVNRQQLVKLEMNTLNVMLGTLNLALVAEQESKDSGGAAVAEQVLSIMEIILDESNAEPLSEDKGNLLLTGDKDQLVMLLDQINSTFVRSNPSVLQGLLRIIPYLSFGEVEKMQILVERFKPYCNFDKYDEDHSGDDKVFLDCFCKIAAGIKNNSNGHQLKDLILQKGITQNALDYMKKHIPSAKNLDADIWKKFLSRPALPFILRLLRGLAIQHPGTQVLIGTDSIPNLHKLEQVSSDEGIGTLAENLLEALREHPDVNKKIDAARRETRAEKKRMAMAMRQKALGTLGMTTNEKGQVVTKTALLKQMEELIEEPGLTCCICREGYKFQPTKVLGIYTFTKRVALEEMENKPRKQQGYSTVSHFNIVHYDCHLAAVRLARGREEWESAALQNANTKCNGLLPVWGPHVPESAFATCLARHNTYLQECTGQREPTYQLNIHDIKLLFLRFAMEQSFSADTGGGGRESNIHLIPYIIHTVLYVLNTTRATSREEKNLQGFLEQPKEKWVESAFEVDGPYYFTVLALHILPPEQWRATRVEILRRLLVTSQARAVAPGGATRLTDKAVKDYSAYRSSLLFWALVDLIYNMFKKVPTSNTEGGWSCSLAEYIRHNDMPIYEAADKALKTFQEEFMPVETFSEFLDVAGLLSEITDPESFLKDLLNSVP
p600 fragment encompassing residues 4949–5183 (Q5T4S7, residues 4949-5183): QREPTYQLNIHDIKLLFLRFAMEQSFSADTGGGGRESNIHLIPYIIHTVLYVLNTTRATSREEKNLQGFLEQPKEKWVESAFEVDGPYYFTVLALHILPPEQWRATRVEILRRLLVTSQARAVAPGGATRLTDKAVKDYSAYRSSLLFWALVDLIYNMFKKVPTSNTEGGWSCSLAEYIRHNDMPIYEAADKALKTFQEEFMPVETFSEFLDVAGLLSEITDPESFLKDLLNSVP

Legend:
[1] = target: T1, endogenous Ndel1 (HeLa) (human (endogenous in HeLa)) (UniProt Q9GZM8); assay: co-IP; HeLa cell extracts expressing GFP-Lis1 and one of three FLAG-tagged C-terminal p600 fragments; co-immunoprecipitation with endogenous Ndel1; Western blot
T1 sequence: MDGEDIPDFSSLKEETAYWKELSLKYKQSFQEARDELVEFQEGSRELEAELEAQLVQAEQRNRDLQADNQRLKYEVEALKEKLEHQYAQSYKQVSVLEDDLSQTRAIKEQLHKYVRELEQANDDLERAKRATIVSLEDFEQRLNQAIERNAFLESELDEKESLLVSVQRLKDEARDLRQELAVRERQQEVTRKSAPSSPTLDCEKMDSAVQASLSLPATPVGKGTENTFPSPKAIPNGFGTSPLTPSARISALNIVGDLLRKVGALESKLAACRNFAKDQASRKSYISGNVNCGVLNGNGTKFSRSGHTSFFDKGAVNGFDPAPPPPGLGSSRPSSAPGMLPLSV

[2] = target: T2, Ndel1^1–201 (coiled-coil region of Ndel1) (UniProt Q9GZM8); assay: SEC; analytical SEC, Superdex 200 5/150, 4°C, 10 mM HEPES pH 7.5, 0.15 M NaCl, 1 mM DTT; proteins alone or mixed at 50 µM and incubated 30 min on ice; fractions analysed by SDS-PAGE; both purified
T2 sequence: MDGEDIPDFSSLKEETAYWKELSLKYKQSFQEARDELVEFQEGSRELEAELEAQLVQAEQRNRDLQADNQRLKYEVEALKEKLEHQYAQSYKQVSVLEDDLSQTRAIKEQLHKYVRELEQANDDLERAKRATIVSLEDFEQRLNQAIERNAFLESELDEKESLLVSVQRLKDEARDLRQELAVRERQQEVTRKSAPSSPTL

[3] = target: T2, Ndel1^1–201 (coiled-coil region of Ndel1); assay: SEC; analytical SEC with the binding performed at 10 µM; data not included; both purified
[4] = target: T3, recombinant p600^4480–5183 (human, UniProt Q5T4S7 4480-5183); assay: SEC; analytical SEC, Superdex 200 5/150, 4°C, 10 mM HEPES pH 7.5, 0.15 M NaCl, 1 mM DTT; proteins alone or mixed at 50 µM and incubated 30 min on ice; fractions analysed by SDS-PAGE; both purified
T3 construct: Elutes mostly as a monomer (~75 kDa) in SEC; also called C-terminal portion of p600; source: E. coli BL21-Rosetta, purified (glutathione sepharose, PreScission cleavage, Resource Q)

[5] = target: T4, Ndel1 (mouse (endogenous in mouse brain)) (UniProt Q9ERR1); assay: co-IP; mouse brain lysates, immunoprecipitation with Ndel1 antibodies; Myc antibodies and beads alone as negative controls; Western blot
T4 sequence: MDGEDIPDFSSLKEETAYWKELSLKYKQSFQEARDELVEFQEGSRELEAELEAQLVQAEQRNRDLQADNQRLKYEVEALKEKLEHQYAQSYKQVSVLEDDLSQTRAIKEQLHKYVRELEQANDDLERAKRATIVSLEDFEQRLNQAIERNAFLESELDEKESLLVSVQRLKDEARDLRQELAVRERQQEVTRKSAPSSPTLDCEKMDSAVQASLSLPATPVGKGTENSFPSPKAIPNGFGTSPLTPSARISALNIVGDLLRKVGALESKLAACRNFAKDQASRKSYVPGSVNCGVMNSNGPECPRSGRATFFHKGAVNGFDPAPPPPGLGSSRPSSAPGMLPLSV

Molecule: FLAG-tagged p600 fragment containing residues 3910–4851 (from UniProt Q5T4S7 3910-4851) (domain or fragment)
- binding [1]: no binding

Molecule: p600 fragment encompassing residues 4949–5183 (from UniProt Q5T4S7 4949-5183) (domain or fragment)
- binding [2]: no binding

Molecule: recombinant p600^4480–5183 (from UniProt Q5T4S7 4480-5183) (domain or fragment)
- binding [3]: no binding (condition: at 10 µM)
- binding [2]: binds weakly
- binding [4]: binds weakly

B2: GFP-Lis1 (protein, UniProt P43034 1-410)
chain: MVLSQRQRDELNRAIADYLRSNGYEEAYSVFKKEAELDVNEELDKKYAGLLEKKWTSVIRLQKKVMELESKLNEAKEEFTSGGPLGQKRDPKEWIPRPPEKYALSGHRSPVTRVIFHPVFSVMVSASEDATIKVWDYETGDFERTLKGHTDSVQDISFDHSGKLLASCSADMTIKLWDFQGFECIRTMHGHDHNVSSVAIMPNGDHIVSASRDKTIKMWEVQTGYCVKTFTGHREWVRMVRPNQDGTLIASCSNDQTVRVWVVATKECKAELREHEHVVECISWAPESSYSSISEATGSETKKSGKPGPFLLSGSRDKTIKMWDVSTGMCLMTLVGHDNWVRGVLFHSGGKFILSCADDKTLRVWDYKNKRCMKTLNAHEHFVTSLDFHKTAPYVVTGSVDQTVKVWECR
- binding [1]: binds

Now from value to molecule:

- binding [1]: no binding
Molecule: FLAG-tagged p600 fragment containing residues 3214–3899 (from UniProt Q5T4S7 3214-3899) (domain or fragment)

- binding [1]: binds
Molecule: FLAG-tagged p600 fragment containing residues 4480–5183 (from UniProt Q5T4S7 4480-5183) (domain or fragment)

- binding [5]: binds
B1: Lis1 (protein, UniProt P63005 1-410)
chain: B2 chain with V39M
